# Source: PubChem BioAssay (NCATS)
# The inconclusive results got no clear call from the source; some entries with a clear call stand among them for comparison. Potencies beside an inconclusive call are fits to weak or partial responses and may not hold up. Activity calls are given as the source filed them. Calls follow the shape of the dose curve; as a rule, active = well fitted activation curve with a large enough effect; inconclusive = small, poorly fitted or top-dose-only effect; inactive = no such curve, though single readings can be large or run the other way.
# Target: Cellular tumor antigen p53 (Homo sapiens) (UniProt P04637)
# Sequence of UniProt P04637 (P04637 whole entry, looked up): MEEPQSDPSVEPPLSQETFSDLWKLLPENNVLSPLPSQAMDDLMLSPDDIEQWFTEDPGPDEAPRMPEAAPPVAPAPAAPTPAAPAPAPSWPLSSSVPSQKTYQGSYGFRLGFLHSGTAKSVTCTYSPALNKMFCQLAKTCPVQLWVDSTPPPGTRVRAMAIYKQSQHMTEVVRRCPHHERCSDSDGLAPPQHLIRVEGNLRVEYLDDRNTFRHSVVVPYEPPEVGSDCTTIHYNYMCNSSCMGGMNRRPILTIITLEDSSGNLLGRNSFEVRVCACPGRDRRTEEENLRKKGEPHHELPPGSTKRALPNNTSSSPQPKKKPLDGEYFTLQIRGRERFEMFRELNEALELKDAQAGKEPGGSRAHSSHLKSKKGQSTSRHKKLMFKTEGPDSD
# Assay: Primary qHTS for small molecule compounds that upregulate eGFP-tagged delta133p53alpha (in N-terminal) cells. (AID 2060322); also: nearly all actives have a fitted effect of over 75% in size;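 as to activation: series mostly up to about 56 µM; 0% = DMSO vehicle and 100% = reference activator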
# Conditions: NCI-H358 eGFP-delta133p53alpha fluorescence, 24 h; activation: stronger effect = higher value
# In short: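 NCI-H358 cells pre-induced 24 h with 10 ng/ml doxycycline to express N-terminal eGFP-delta133p53alpha, then dosed 24 h at 37C without doxycycline; fixed, Hoechst-stained, GFP intensity by laser scanning cytometry, normalized to DMSO (0%) and 57.5 uM 5-azacytidine (100%).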
# Potency is read from the fitted curve at half-maximal effect; tags tell the direction and shape of the fitted curve.
SMILES,Potency,activation
CC(=O)Nc1nc(C)c(-c2nc(N3CCCC(O)C3)no2)s1 (stereo unspecified),"inconclusive: 0.213 µM [activator, partial curve]",
C#CCNCc1cc2cc(OCc3ccccc3)ccc2[nH]1,"inconclusive: 26.9 µM [activator, single point]",
C/C=C(/C)C(=O)O[C@H]1C=C(CO)C(=O)[C@H](OC(=O)/C(C)=C/CO)[C@H]1C(C)C,"inconclusive: 5.24 µM [activator, full curve]",
C=CCNC(N)=S,,inactive: -2.82%
Nc1nc(Nc2ccc3c(c2)CCC(N2CCCC2)CC3)nn1-c1cc2c(nn1)-c1ccccc1CCC2 (stereo unspecified),active: 26.9 µM,
CC(=O)NC1CC(=O)C23C(=O)NC(Cc4c[nH]c5ccccc45)C2C(C)=C(C)C(O)C3/C=C/CC(C)/C=C(/C)C(O)C1O (stereo unspecified),,inactive: 8.93%
COCC(=O)NCC=Cc1ccc2ncnc(Nc3ccc(Oc4ccc(C)nc4)c(C)c3)c2c1,"inconclusive: 38.5 µM [activator, single point]",
CCCCCCCCCCOCC(O)CN (stereo unspecified),"inconclusive: 21.9 µM [activator, single point]",
O=S(=O)(Nc1cc(Cl)c(Oc2cnc3ccccc3c2)c(Cl)c1)c1ccc(Cl)cc1Cl,,inactive: -4.77%
O=C(Nc1cc(-c2ccccc2)nn1-c1ccccc1)c1ccc([N+](=O)[O-])cc1,,inactive: -11%
C[C@@H]1CC[C@@]2(OC1)O[C@H]1C[C@H]3[C@@H]4CC[C@H]5C[C@@H](O)CC[C@]5(C)[C@H]4CC(=O)[C@]3(C)[C@H]1[C@@H]2C,,inactive: -17.6%
